Changes are numbered by the printed parent chain. In names and notes the source's numbering stands. No constants are given. Whether binding was seen depends on the method and setting. For part of these data: Binding seen in cells or lysates may run through a third protein. Some binding calls cover weakened binding; strength is not graded here. For part of these data: Sequences can lack the tags named with a protein. Values belong to the molecule of their own block, whether it stands above or below them.
Key:
[1] = molecular target: T1, tagged BCL10 wt (pEF vector) (human) (UniProt O95999); test: co-IP; co-IPs of Supplementary Fig. 4d; cells and tags not given
T1 sequence: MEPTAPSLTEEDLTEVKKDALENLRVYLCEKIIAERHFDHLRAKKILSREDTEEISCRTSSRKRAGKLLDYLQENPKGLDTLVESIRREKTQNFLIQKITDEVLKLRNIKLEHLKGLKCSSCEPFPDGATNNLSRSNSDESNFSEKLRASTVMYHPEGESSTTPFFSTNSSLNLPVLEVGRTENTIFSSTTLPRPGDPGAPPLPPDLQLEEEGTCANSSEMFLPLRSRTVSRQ

Protein sequences, listed by entry. Tags and fused reporters are not part of them. Lines headed by an entry give the natural chain unless they say otherwise; changes in a name come on top. Chains listed by the source or under a name are the forms on record and can include a tag or linker.
UniProt Q9UDY8: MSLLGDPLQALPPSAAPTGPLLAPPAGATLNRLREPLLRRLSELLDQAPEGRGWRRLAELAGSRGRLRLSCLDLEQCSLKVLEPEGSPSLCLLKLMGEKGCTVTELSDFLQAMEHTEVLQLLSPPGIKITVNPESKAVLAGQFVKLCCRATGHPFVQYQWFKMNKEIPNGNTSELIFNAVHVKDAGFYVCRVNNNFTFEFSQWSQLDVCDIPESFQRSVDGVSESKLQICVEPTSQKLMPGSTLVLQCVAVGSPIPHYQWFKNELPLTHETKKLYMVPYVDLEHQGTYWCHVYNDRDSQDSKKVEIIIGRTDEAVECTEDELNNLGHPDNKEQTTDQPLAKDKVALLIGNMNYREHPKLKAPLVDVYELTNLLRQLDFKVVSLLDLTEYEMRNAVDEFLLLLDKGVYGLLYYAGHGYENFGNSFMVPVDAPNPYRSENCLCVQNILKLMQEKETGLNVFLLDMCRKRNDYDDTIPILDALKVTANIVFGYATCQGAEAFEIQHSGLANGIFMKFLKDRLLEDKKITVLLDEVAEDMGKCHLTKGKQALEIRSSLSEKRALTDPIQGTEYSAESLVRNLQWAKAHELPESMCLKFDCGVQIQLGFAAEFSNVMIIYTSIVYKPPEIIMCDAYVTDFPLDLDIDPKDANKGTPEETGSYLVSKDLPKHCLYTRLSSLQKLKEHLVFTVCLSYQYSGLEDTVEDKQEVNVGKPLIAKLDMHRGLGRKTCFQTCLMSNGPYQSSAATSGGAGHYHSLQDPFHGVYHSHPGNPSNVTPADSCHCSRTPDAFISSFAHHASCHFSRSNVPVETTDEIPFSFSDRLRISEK
MALT1 C77A (Q9UDY8-2, form named): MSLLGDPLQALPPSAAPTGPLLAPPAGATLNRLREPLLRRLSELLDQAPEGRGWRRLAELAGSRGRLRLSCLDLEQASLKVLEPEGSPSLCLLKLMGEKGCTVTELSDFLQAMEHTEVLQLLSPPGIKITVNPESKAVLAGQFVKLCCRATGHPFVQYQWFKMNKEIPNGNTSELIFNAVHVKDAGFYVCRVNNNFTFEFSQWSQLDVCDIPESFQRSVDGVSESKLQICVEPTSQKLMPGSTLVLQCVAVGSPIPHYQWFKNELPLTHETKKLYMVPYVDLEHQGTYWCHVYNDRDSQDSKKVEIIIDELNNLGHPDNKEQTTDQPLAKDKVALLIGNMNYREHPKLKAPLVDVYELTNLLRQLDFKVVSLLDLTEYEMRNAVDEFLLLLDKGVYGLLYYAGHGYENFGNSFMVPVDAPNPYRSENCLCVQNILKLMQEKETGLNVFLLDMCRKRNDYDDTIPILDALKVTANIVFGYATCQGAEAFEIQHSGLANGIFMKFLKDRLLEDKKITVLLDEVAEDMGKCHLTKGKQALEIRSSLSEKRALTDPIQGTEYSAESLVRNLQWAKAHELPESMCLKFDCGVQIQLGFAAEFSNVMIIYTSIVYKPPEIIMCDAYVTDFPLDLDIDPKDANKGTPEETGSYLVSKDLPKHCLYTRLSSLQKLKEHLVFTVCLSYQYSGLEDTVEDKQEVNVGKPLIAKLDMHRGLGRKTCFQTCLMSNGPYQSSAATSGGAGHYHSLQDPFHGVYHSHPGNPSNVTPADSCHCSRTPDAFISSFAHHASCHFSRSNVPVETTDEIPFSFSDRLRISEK
MALT1 Q76A/E98R (Q9UDY8-2, form named): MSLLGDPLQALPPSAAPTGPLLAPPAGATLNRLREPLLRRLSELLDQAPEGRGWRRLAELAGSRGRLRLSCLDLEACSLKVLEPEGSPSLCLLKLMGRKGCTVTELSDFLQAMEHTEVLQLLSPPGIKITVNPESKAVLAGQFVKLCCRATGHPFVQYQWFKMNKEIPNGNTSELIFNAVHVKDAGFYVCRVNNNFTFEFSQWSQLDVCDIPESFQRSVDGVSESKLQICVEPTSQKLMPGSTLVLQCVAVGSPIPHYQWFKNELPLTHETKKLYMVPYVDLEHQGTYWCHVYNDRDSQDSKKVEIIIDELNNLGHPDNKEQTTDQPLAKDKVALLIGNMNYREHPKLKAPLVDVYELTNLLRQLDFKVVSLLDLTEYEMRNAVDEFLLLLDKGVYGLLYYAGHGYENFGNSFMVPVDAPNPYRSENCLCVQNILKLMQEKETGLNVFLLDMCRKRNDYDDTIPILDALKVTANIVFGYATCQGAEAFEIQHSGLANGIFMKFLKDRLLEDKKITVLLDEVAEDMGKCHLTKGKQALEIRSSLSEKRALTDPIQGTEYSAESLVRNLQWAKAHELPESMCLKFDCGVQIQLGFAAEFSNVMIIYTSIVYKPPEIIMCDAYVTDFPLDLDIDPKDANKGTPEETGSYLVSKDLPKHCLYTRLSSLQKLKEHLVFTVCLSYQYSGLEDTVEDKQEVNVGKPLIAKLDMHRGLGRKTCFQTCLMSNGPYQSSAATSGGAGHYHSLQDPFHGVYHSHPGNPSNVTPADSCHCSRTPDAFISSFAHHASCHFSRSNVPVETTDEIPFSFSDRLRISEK
MALT1 isoform B L82D with C-terminal Flag-Strep-Strep tag (Q9UDY8-2, form named): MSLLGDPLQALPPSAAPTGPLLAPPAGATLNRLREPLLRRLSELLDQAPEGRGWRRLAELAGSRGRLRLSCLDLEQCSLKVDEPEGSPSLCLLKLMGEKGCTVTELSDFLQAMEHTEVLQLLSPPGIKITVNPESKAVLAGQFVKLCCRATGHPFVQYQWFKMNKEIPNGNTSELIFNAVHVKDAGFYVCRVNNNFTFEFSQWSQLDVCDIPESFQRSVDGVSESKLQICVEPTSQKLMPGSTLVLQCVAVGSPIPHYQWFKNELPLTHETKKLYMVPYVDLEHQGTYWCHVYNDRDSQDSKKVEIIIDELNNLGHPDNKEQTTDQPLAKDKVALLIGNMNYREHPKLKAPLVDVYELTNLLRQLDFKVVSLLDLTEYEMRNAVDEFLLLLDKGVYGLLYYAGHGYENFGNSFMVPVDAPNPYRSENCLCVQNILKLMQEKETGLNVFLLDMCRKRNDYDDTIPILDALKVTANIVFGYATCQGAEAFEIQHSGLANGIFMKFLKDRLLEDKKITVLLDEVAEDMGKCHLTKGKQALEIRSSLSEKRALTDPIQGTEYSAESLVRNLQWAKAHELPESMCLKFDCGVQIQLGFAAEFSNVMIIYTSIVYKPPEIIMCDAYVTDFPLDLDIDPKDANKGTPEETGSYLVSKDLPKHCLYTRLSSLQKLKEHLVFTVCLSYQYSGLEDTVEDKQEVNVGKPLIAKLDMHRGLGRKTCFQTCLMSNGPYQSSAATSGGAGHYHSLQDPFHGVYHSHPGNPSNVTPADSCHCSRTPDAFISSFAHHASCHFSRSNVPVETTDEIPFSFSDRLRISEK
MALT1 isoform B V81R with C-terminal Flag-Strep-Strep tag (Q9UDY8-2, form named): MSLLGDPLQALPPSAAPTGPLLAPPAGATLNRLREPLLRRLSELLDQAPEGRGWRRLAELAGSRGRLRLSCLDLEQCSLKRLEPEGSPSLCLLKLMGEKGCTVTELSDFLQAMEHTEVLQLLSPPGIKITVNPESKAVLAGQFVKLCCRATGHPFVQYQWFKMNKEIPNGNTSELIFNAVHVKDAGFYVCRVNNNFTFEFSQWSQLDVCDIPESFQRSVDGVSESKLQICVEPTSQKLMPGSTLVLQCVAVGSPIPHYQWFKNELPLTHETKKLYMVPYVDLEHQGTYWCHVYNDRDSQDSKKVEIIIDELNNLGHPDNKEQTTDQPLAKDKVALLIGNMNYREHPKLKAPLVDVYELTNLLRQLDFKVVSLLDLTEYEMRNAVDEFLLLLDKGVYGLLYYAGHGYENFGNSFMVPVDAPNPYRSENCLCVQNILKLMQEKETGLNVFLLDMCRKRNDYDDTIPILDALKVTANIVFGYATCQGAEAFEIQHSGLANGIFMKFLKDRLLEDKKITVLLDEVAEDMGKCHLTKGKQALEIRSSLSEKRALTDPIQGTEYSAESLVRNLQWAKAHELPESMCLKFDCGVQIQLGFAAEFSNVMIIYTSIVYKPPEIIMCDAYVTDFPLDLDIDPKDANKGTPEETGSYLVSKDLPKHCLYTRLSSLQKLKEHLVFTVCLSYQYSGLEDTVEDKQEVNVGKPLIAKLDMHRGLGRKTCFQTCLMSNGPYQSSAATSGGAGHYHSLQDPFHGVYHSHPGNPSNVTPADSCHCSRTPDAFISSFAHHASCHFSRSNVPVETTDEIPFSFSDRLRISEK
MALT1 isoform B wt with C-terminal Flag-Strep-Strep tag (Q9UDY8-2, form named): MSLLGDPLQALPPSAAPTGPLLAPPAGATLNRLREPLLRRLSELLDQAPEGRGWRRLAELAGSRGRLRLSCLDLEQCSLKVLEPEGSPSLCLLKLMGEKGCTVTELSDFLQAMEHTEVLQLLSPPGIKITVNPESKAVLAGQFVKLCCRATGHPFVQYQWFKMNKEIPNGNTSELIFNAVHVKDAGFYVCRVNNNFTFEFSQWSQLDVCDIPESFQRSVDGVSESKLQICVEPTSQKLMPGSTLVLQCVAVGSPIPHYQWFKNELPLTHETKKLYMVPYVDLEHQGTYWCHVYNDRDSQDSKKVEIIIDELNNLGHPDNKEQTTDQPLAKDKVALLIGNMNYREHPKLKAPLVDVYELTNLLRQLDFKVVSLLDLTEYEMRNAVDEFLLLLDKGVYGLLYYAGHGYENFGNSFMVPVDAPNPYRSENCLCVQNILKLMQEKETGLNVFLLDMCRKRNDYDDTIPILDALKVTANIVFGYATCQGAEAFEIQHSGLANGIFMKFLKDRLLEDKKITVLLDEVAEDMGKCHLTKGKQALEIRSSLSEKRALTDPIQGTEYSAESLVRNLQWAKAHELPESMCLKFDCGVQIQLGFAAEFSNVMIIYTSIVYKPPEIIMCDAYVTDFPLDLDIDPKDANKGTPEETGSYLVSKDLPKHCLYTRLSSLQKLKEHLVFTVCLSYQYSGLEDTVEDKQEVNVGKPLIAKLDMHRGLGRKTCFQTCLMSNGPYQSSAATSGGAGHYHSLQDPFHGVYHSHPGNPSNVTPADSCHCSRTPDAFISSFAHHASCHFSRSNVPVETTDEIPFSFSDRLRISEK

[2] = molecular target: T2, BCL10, endogenous in MALT1 KO Jurkat T-cells (human (endogenous in Jurkat)) (UniProt O95999); test: co-IP; anti-BCL10 (C-17) IP from lysates of reconstituted BCL10 KO or MALT1 KO Jurkat T-cells, unstimulated or P/I for 20 min; co-IP buffer 25 mM HEPES pH 7.5, 150 mM NaCl, 0.2% NP-40; Western blot
T2 sequence: T1 sequence

[3] = molecular target: T3, BCL10 wt with C-terminal Flag-Strep-Strep tag (human) (UniProt O95999); test: pull-down; StrepTactin pull-down (ST-PD) of the Flag-Strep-Strep tagged BCL10 or MALT1 from lysates of reconstituted KO Jurkat T-cells, unstimulated or P/I for 20 min; Western blot
T3 sequence: T1 sequence

[4] = molecular target: T4, BCL10 L104R with C-terminal Flag-Strep-Strep tag (human) (UniProt O95999); test: as above
T4 sequence: T1 sequence with L104R

[5] = molecular target: T5, BCL10 R42A with C-terminal Flag-Strep-Strep tag (human) (UniProt O95999); test: as above
T5 sequence: T1 sequence with R42A

[6] = molecular target: T3, BCL10 wt with C-terminal Flag-Strep-Strep tag (human); test: co-IP; anti-BCL10 (C-17) IP from lysates of reconstituted BCL10 KO or MALT1 KO Jurkat T-cells, unstimulated or P/I for 20 min; co-IP buffer 25 mM HEPES pH 7.5, 150 mM NaCl, 0.2% NP-40; Western blot
[7] = molecular target: T4, BCL10 L104R with C-terminal Flag-Strep-Strep tag (human); test: as above
[8] = molecular target: T6, BCL10 R36E with C-terminal Flag-Strep-Strep tag (human) (UniProt O95999); test: as above
T6 sequence: T1 sequence with R36E

[9] = molecular target: T7, BCL10 R42E with C-terminal Flag-Strep-Strep tag (human) (UniProt O95999); test: as above
T7 sequence: T1 sequence with R42E

[10] = molecular target: T1, tagged BCL10 wt (pEF vector) (human); test: co-IP; HEK293 co-transfected with tagged MALT1B and BCL10 wt and mutant constructs; IP with anti-Flag antibodies, Western blot
[11] = molecular target: T8, tagged BCL10 L104R (pEF vector) (human) (UniProt O95999); test: as above
T8 sequence: T1 sequence with L104R

[12] = molecular target: MALT1 isoform B wt with C-terminal Flag-Strep-Strep tag (human) (UniProt Q9UDY8); test: pull-down; StrepTactin pull-down (ST-PD) of the Flag-Strep-Strep tagged BCL10 or MALT1 from lysates of reconstituted KO Jurkat T-cells, unstimulated or P/I for 20 min; Western blot
[13] = molecular target: MALT1 isoform B V81R with C-terminal Flag-Strep-Strep tag (human) (UniProt Q9UDY8); test: as above
[14] = molecular target: BCL10 R42E, GST-tag removed (human) (UniProt O95999); test: dynamic light scattering; BCL10-MALT1 complex fractions at 0.5 μM, filament formation started with equimolar PreScission protease (removal of GST), polymerisation followed over 100 min; both purified
[15] = molecular target: BCL10 R49E, GST-tag removed (human) (UniProt O95999); test: as above
[16] = molecular target: T9, BCL10 R36E, GST-tag removed (human), O95999; test: as above; conditions: remark: other sources report otherwise
T9 chain: T1 sequence with R36E

Molecule: MALT1 isoform B L82D with C-terminal Flag-Strep-Strep tag (from UniProt Q9UDY8-2 1-813)
- binding [2]: no binding

Molecule: MALT1 isoform B V81R with C-terminal Flag-Strep-Strep tag (from UniProt Q9UDY8-2 1-813)
- binding [2]: no binding

Molecule: MALT1 isoform B wt with C-terminal Flag-Strep-Strep tag (from UniProt Q9UDY8-2 1-813)
- binding [2]: binds

Molecule: MALT1, endogenous in Jurkat T-cells (from UniProt Q9UDY8 1-824)
- binding [3]: binds
- binding [4]: no binding
- binding [5]: binds
- binding [6]: binds
- binding [7]: no binding
- binding [8]: binds
- binding [9]: binds

B1: human BCL10 (full length), GST-tag removed (natural protein, UniProt O95999 1-233, looked up)
chain: T1 sequence
notes: BCL10 (B cell lymphoma 10), human, full length; Forms helical filaments together with MALT1 (T29-G722); only residues 10-115 are modelled in the map; also called B cell lymphoma 10; BCL10 wt; not shown: GST, N-terminal, cleaved
- binding [12]: binds
- binding [13]: no binding

B2: BCL10 R42E, GST-tag removed (protein, UniProt O95999 1-233)
chain: T1 sequence with R42E
- binding [14]: no binding (tested: 0.5 μM)

B3: BCL10 R49E, GST-tag removed (protein, UniProt O95999 1-233)
chain: T1 sequence with R49E
- binding [15]: no binding (tested: 0.5 μM)

B4: BCL10 R36E, GST-tag removed, O95999 1-233 (protein)
chain: T1 sequence with R36E
- binding [16]: no binding (tested: 0.5 μM)

Next, values leading:

- binding [1]: binds
Molecule: MALT1 C77A (from UniProt Q9UDY8-2 1-813)

- binding [1]: binds
Molecule: MALT1 Q76A/E98R (from UniProt Q9UDY8-2 1-813)

- binding [10]: no binding
Molecule: tagged MALT1B V81R (pEF vector) (from UniProt Q9UDY8-2 1-813)

- binding [11]: no binding
- binding [10]: binds
- binding [1]: binds
Molecule: tagged MALT1B wt (pEF vector) (from UniProt Q9UDY8-2 1-813)

Source: paper PMC6168461, “Molecular architecture and regulation of BCL10-MALT1 filaments” (Nature Communications, 2018)
